Source: the supplement of paper PMC4166925
± gives the standard deviation of the averaged measurements. Whole data set: some 33,000 sequences, median “E-score (dimensionless, -0.5 to 0.5)” near -0.049, cut for the highest 2% near 0.37. Some of the results follow.

The sequences below were run on T1, PmTbr T-box DNA-binding domain (GST fusion) (assay: PBM E-score of 8-mer (E-score (dimensionless, -0.5 to 0.5)); Tbr is Tbrain of the sea star Patiria miniata (Pm) or the sea urchin Strongylocentrotus purpuratus (Sp); higher = stronger binding preference; most listed sequences are background and not binding sites). Settings: the construct has about 5 more residues each side.
T1 sequence: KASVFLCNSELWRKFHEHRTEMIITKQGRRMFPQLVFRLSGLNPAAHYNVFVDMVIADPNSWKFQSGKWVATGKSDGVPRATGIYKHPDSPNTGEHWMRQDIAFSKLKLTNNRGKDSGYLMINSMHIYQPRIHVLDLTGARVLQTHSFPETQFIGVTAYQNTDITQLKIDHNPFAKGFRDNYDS
In short: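 Primer extension turned Universal Agilent oligonucleotide arrays double-stranded. They were incubated with 200 nM protein in PBS (pH 7.5); the protein was a GST-fused Tbr T-box DNA-binding domain expressed in BL21 E. coli at 20 °C and purified on glutathione. Every ungapped 8-mer was scored from the scanned, quantified probe intensities, and the Universal PBM Analysis Suite gave each an enrichment E-score averaged over duplicate arrays.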

Sequence | PBM E-score of 8-mer
CACGAACG | 0.178 ± 0.029
CTAACGTC | -0.175 ± 0.038
GAGTGACA | 0.373 ± 0.017
GAGGACTA | -0.333 ± 0.0069
ACCGCCTG | 0.077 ± 0.11
ATCTACCA | -0.0473 ± 0.051
ATGCCTAA | 0.0145 ± 0.021
GCTGCTGA | -0.119 ± 0.044
AGAAAGAA | -0.238 ± 0.064
ATTTTTCC | 0.00112 ± 0.058
CTGGAAGA | -0.211 ± 0.047
AACCCCAG | -0.401 ± 0.0055
AACTGCGA | 0.312 ± 0.018
AACCCCCG | 0.0146 ± 0.0046
TCATTCGA | -0.143 ± 0.026
TAGATAGA | -0.177 ± 0.0018
AAACCGGG | -0.1665 ± 0.00043
CCAACGCC | 0.225 ± 0.04
ATTGCAAC | -0.043 ± 0.047
CAAGCTGG | 0.215 ± 0.0055
CTAGTTCA | 0.0311 ± 0.029
AGGGATAG | -0.192 ± 0.068
AGATCGGC | -0.244 ± 0.013
CTTTTTGC | 0.00834 ± 0.022
AGATGTAG | -0.1996 ± 0.00023

Sequence | PBM E-score of 8-mer
TACTGATA | -0.123 ± 0.0055
AGTCACAC | 0.462 ± 0.0029
GCGCGTAA | 0.176 ± 0.0068
ATTTAGAC | -0.155 ± 0.022
AAAGAACC | -0.217 ± 0.067
AAAGGCCT | -0.237 ± 0.025
GCAGCGTA | -0.0821 ± 0.013
AACTTTCA | -0.00477 ± 0.064
GCTCTCCA | -0.163 ± 0.016
CTGACCGA | -0.0732 ± 0.0037
ACGGAGAC | -0.194 ± 0.015
GCTAGCGA | 0.21 ± 0.021
ACAAAGCG | 0.0603 ± 0.0036
GATTAACA | 0.306 ± 0.03
ACCGAACC | -0.043 ± 0.11
ATGCTAGA | -0.158 ± 0.055
GGCGTATA | -0.00473 ± 0.058
AAGTTATA | 0.0895 ± 0.029
ACAGCCGT | 0.0773 ± 0.041
CGTAGGAA | -0.0196 ± 0.14
AGTTTCGA | -0.2209 ± 0.0018
CCATTGGC | -0.153 ± 0.012
ATTAGCAG | 0.129 ± 0.045
TCGCGCCA | 0.366 ± 0.018
ATTACTAC | -0.0718 ± 0.035

Sequence | PBM E-score of 8-mer
TCATTAGA | -0.129 ± 0.032
AGACCTGG | -0.3082 ± 0.0015
ATGGATGG | -0.25357 ± 0.00023
CGGCTCGA | 0.0408 ± 0.024
ATTACCGG | -0.178 ± 0.031
CATCCTGG | -0.0719 ± 0.003
TCTAGTAA | -0.223 ± 0.027
ACTCGGGC | -0.0948 ± 0.016
GATGCACA | -0.0216 ± 0.037
GTTGTCGA | 0.241 ± 0.021
ATTTCCCC | -0.183 ± 0.023
AGCACATA | 0.222 ± 0.014
ATGATGTA | -0.137 ± 0.0031
ATGCTTTC | 0.0507 ± 0.0053
ACGGACCG | -0.0149 ± 0.045
GAACTTGA | -0.136 ± 0.051
GGTATTTA | -0.211 ± 0.061
AAAAGAAG | -0.193 ± 0.03
CTATAGAA | -0.129 ± 0.058
GATGATCC | -0.0862 ± 0.048
AGGTGGTG | 0.385 ± 0.042
CTAACCGC | 0.0244 ± 0.035
CCGGAGAG | -0.158 ± 0.048
ATCGTAGA | -0.172 ± 0.016
CTAACTCC | -0.0973 ± 0.039

Sequence | PBM E-score of 8-mer
TTATCGAA | -0.0452 ± 0.0066
CTTACGTA | -0.1098 ± 0.00089
AACGAAAA | -0.172 ± 0.019
AACGAGAA | -0.0662 ± 0.0045
TAGTCGGA | -0.1819 ± 0.00083
ACCCGAGT | -0.0549 ± 0.0084
ATAAGAAA | -0.172 ± 0.1
ACTAACCG | -0.0963 ± 0.013
TACCTACA | -0.2971 ± 0.00036
AACTTTCC | -0.105 ± 0.06
ATATCTCC | -0.1611 ± 0.0007
GTGAAGAA | 0.223 ± 0.021
ATGGACAG | -0.212 ± 0.057
AGGTGCAA | 0.4484 ± 0.0012
GTCGAGAA | 0.0517 ± 0.025
CCCCAAAG | -0.0097 ± 0.076
GGAAATCA | -0.0612 ± 0.068
CAACGAAG | -0.0866 ± 0.054
ATATGTTG | 0.0196 ± 0.038
AAGGCCAG | -0.128 ± 0.024
AGCGTACT | -0.132 ± 0.029
CTACCAAG | -0.0639 ± 0.025
TACTTGAA | -0.262 ± 0.037
GCAGTACA | -0.187 ± 0.06
AGGGCGGG | -0.0505 ± 0.059

Sequence | PBM E-score of 8-mer
AGACCAAT | -0.169 ± 0.044
GGATTACA | -0.0414 ± 0.012
ACACACAC | 0.281 ± 0.029
CGAGAATA | -0.108 ± 0.11
CATCGGCA | -0.0492 ± 0.0013
CATCTTGG | -0.12 ± 0.063
AGTGATAT | 0.22 ± 0.034
CGAAGTAC | -0.215 ± 0.04
GAAGGGGC | -0.0956 ± 0.061
TGAGAACA | 0.302 ± 0.0062
ATCCGCTC | -0.151 ± 0.024
AAACGCGA | 0.123 ± 0.011
GTCGCGTA | 0.0036 ± 0.036
ATCGCCAT | -0.0445 ± 0.069
AAGCGAGT | -0.184 ± 0.018
ACTTATAG | 0.0221 ± 0.063
ATAAAGAC | -0.265 ± 0.06
ATTAAAAG | -0.18 ± 0.078
AATAGAGG | -0.0466 ± 0.021
ATCTTACG | -0.191 ± 0.0052
AAGTTTGG | -0.143 ± 0.031
CCGCCGAG | -0.088 ± 0.026
AACTGCGG | -0.0835 ± 0.035
CGACAACG | 0.253 ± 0.015
ATTAACGA | 0.0284 ± 0.0082

Sequence | PBM E-score of 8-mer
AACATGTC | 0.0456 ± 0.014
GACAGACA | 0.162 ± 0.01
ATTATCTG | 0.018 ± 0.036
CTGGAGGC | -0.115 ± 0.0062
AGTTTATC | 0.00368 ± 0.075
CTTTGCCA | 0.0404 ± 0.032
ATTGCGGC | -0.05796 ± 0.00038
ATTCGGGA | -0.206 ± 0.0048
CCATCGTA | -0.139 ± 0.024
AATTCTTA | -0.0772 ± 0.14
CCCGGGAA | 0.0439 ± 0.1
ACCGCAAA | -0.222 ± 0.011
CATTGACG | 0.0782 ± 0.033
CCGTAGCA | -0.0821 ± 0.057
GAACGAAA | -0.125 ± 0.04
AGGTTAAC | 0.0272 ± 0.035
GGTACTTA | -0.233 ± 0.098
ATAGAGTC | -0.207 ± 0.029
ACCTTTGC | 0.157 ± 0.032
CCAGTGGG | -0.248 ± 0.01
CCGTCCGA | -0.0765 ± 0.0039
ACACGTCC | 0.274 ± 0.034
CCGGGAAG | 0.0857 ± 0.11
AAGATCGC | 0.222 ± 0.022
AGAGTATG | -0.216 ± 0.018

Sequence | PBM E-score of 8-mer
CGATACAG | -0.000805 ± 0.045
CCAATTTC | 0.122 ± 0.018
AAATCGCT | -0.000345 ± 0.006
CAGTAGCC | -0.264 ± 0.099
CCCCGCTC | -0.0302 ± 0.034
ACGGTCCA | -0.239 ± 0.031
GCTATATA | -0.0209 ± 0.017
CGATCAAC | 0.124 ± 0.016
ACATCACG | 0.224 ± 0.06
ACCGCCCC | -0.214 ± 0.012
TACACTAA | 0.102 ± 0.059
ATGAGATG | -0.0845 ± 0.075
AAAGAGCC | -0.307 ± 0.026
ATGGCCTG | -0.144 ± 0.05
CTTTGCTC | -0.0392 ± 0.02
AGCTTAAG | -0.102 ± 0.017
TAGCTGAA | -0.173 ± 0.039
GTCTGCAC | 0.00575 ± 0.015
AGTTCCCG | -0.219 ± 0.054
AGCAAGAA | -0.199 ± 0.022
AACTAGGC | -0.0964 ± 0.044
CGCTTCCG | -0.019 ± 0.12
